# From the supplement of paper PMC9446081
# The whole screen tested about 39,000 compounds, of which about 220 (0.56%) showed activity. The list shows a part of the results.
# Tested on: Escherichia coli K-12 BW25113
# Experiment: relative growth (OD600 normalised to plate interquartile mean) (fraction); higher = less growth inhibition, active = 0.2 or less
# Settings: 50 µM; LB; incubation time: overnight (16-24 h)
# 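Further: static incubation at 37 °C against the wild-type strain, values averaged over two biological replicates.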
row,SMILES,relative growth
1,CCNc1cc(=N)n(CC)c2n[nH]c(N)c12,inactive: 0.969
2,C[C@@H]1CCCCO[C@H](CN(C)C(=O)Nc2ccc3c(c2)OCO3)[C@@H](C)CN([C@H](C)CO)C(=O)c2cc(NC(=O)Nc3ccc4c(c3)OCO4)ccc2O1,inactive: 1.02
3,C[C@@H]1CN([C@@H](C)CO)C(=O)c2cc(NC(=O)c3ccccc3)ccc2O[C@@H](C)CCCCO[C@@H]1CN(C)S(=O)(=O)c1cccs1,inactive: 1.03
4,COc1cc(Cc2cnc(N)nc2N)cc(OC)c1OC,active: 0.044
5,C[C@@H]1CCCCO[C@H](CN(C)S(=O)(=O)c2cccs2)[C@@H](C)CN([C@H](C)CO)C(=O)c2cc(NC(=O)Nc3cccc4ccccc34)ccc2O1,inactive: 0.987
6,CCCCC/C=C/C/C=C/C/C=C/C/C=C/CCCC(=O)O[C@H](CO)COC(=O)CCCCCCCCCCCCCCCCC,inactive: 1.01
7,CC(C)C[C@@H](NC(=O)[C@@H](C)N)C(=O)O,inactive: 0.991
8,CC(C)NC(=O)N(C)C[C@H]1Oc2cc(C#Cc3ccccn3)ccc2S(=O)(=O)N([C@@H](C)CO)C[C@@H]1C,inactive: 0.981
9,CC(C)CC#Cc1ccc2c(c1)O[C@H](CN(C)CC1CCOCC1)[C@H](C)CN([C@H](C)CO)S2(=O)=O,inactive: 0.977
10,C[C@H](CO)N1C[C@H](C)[C@H](CN(C)C(=O)Nc2cc(F)ccc2F)Oc2ncc(C#CCN(C)C)cc2C1=O,inactive: 0.987
11,COc1ccc(S(=O)(=O)N(C)C[C@H]2Oc3ccc(NS(=O)(=O)c4ccc(F)cc4)cc3CC(=O)N([C@H](C)CO)C[C@@H]2C)cc1,inactive: 1.01
12,C[C@@H]1CCCCO[C@H](CN(C)C(=O)Nc2ccc(C(F)(F)F)cc2)[C@H](C)CN([C@H](C)CO)C(=O)c2cc(NS(=O)(=O)c3ccc(F)cc3)ccc2O1,inactive: 0.992
13,CN(C)CC#Cc1ccc([C@H]2[C@H](CO)N3C(=O)CN(C(=O)c4cccnc4)C[C@@H]23)cc1,inactive: 1.01
14,C[C@@H]1CN([C@@H](C)CO)C(=O)Cc2cc(NC(=O)C3CCCCC3)ccc2O[C@H]1CN(C)Cc1ccc(-c2ccccc2)cc1,inactive: 0.987
15,Cc1cccc(S(=O)(=O)N2C[C@@H](O)COC[C@@H]3O[C@H](CC(=O)N4CCN(C)CC4)CC[C@H]32)c1,inactive: 0.986
16,CC(C)NC(=O)N(C)C[C@@H]1Oc2ccc(NC(=O)Cc3ccccc3)cc2C(=O)N([C@@H](C)CO)C[C@H]1C,inactive: 1
17,CC(C)NC(=O)Nc1cccc2c1O[C@H](CN(C)C(=O)Nc1ccc3c(c1)OCO3)[C@@H](C)CN([C@H](C)CO)C2=O,inactive: 0.982
18,C[C@H]1CCCCO[C@@H](CN(C)S(=O)(=O)c2ccc(F)cc2)[C@@H](C)CN([C@@H](C)CO)C(=O)c2cc(NC(=O)CCC(F)(F)F)ccc2O1,inactive: 1.01
19,O=c1ncc(F)c[nH]1,inactive: 0.962
20,COc1ccc(CN(C)C[C@H]2OCCCC[C@@H](C)Oc3ccc(NC(=O)c4ccncc4)cc3C(=O)N([C@@H](C)CO)C[C@H]2C)cc1,inactive: 1
21,COCC(=O)Nc1ccc2c(c1)C(=O)N(C)[C@H]1CC[C@@H](CC(=O)NC3Cc4ccccc4C3)O[C@H]1CO2,inactive: 1.01

row,SMILES,relative growth
1,C[C@@H]1CN([C@H](C)CO)C(=O)c2c(c3ccccc3n2C)-c2ccccc2CO[C@@H]1CN(C)Cc1ccc(-c2ccccc2)cc1,inactive: 1.01
2,Cc1ccc2oc(=O)cc(Cl)c2c1,inactive: 0.999
3,CC(C)NC(=O)Nc1ccc2c(c1)C(=O)N([C@H](C)CO)C[C@@H](C)[C@@H](CN(C)C(=O)Nc1ccc3c(c1)OCO3)O2,inactive: 1
4,C[C@@H]1CN([C@H](C)CO)C(=O)c2cc(NS(=O)(=O)c3cccs3)ccc2O[C@@H]1CN(C)S(=O)(=O)c1cn(C)cn1,inactive: 0.991
5,C[C@H](CO)N1C[C@H](C)[C@H](CN(C)S(=O)(=O)c2cccs2)Oc2ncc(C#Cc3ccccc3)cc2C1=O,inactive: 1.04
6,C[C@H](CO)N1C[C@H](C)[C@@H](CN(C)Cc2ccc(C(=O)Nc3ccccc3N)cc2)OCCCC[C@H](C)Oc2ccc(N(C)C)cc2C1=O,inactive: 0.978
7,COc1ccc(NC(=O)Cn2c(=O)c3c(OC)ccnc3n(C)c2=O)c(OC)c1,inactive: 1.01
8,C[C@H]1CN([C@@H](C)CO)C(=O)Cc2cc(NS(=O)(=O)c3cn(C)cn3)ccc2O[C@H]1CN(C)C(=O)Nc1ccccc1,inactive: 0.99
9,NNC(=O)c1cc(=S)nc[nH]1,inactive: 1.01
10,O=C([O-])CCCc1ccccc1.[Na+],inactive: 0.837
11,COc1ccccc1CN(C)C[C@H]1OCc2ccccc2-c2c(n(C)c3ccccc23)C(=O)N([C@H](C)CO)C[C@H]1C,inactive: 0.989
12,O=S(=O)(NCC[C@@H]1CC[C@@H](NS(=O)(=O)c2ccccc2Cl)[C@@H](CO)O1)c1ccc(F)cc1,inactive: 1.03
13,C[C@@H]1CCCCO[C@H](CN(C)S(=O)(=O)c2ccccc2)[C@H](C)CN([C@@H](C)CO)C(=O)c2cc(NS(=O)(=O)c3cn(C)cn3)ccc2O1,inactive: 1.01
14,CC1=NC(=O)C2(CCNCC2)N1,inactive: 1.01
15,C[C@H]1CCCCO[C@H](CN(C)CC2CC2)[C@@H](C)CN([C@@H](C)CO)C(=O)c2cc(NC(=O)c3ccccc3)ccc2O1,inactive: 1.01
16,O=C1c2ccccc2C(=O)c2c(NCCNCCO)ccc(NCCNCCO)c21,inactive: 1.13
17,Cc1ccc2c(c1)C(=O)C[C@@H](c1ccc(Cl)cc1Cl)O2,inactive: 0.951
18,CN(C)CC#Cc1ccc([C@@H]2[C@@H](CO)N3CCCCN(C(=O)CN(C)C)C[C@@H]23)cc1,inactive: 0.996
19,C[C@@H]1CN([C@@H](C)CO)C(=O)c2cc(NC(=O)C3CC3)ccc2O[C@@H]1CN(C)C(=O)NC1CCCCC1,inactive: 0.975
20,Cc1noc(C)c1NC(=O)Nc1ccc2c(c1)C(=O)N([C@H](C)CO)C[C@H](C)[C@@H](CN(C)C(=O)Cc1ccccc1)OCCCC[C@@H](C)O2,inactive: 1.02
21,Cc1onc(C(=O)O)c1[N+](=O)[O-],inactive: 0.986
